# In all, about 420,000 compounds went through this assay and about 75 (0.02%) were called active. This list was built around the results that the source calls inconclusive (neither active nor inactive); the mix of calls is not that of the screen. The call rests on the fitted dose curve; in most records, active means well fitted activation curve with a large enough effect; inconclusive means small, poorly fitted or top-dose-only effect; inactive means no such curve, though single readings can be large or run the other way. Where the call is inconclusive, the potency comes from a doubtful curve fit.
# Experiment: qHTS for Inducers of the Endoplasmic Reticulum Stress Response (ERSR) in Human Glioma: qHTS; further: nearly all actives have a fitted effect of over 35% in size; on activation: % of control where 0% means no effect
# Conditions: U87-MG GRP78 promoter luciferase reporter, 16 h; activation: active compounds read high
# In short: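 ERSR induction read as luciferase luminescence (Bright-Glo, 10 min at room temperature) in stably transfected human U87-MG glioma cells exposed to compounds for 16 h, using GRP78 as sensor.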
# Potency means the concentration at half of the fitted maximal effect; tags describe the fitted curve by direction and shape.
SMILES,Potency,activation
CS(=O)(=O)c1cnc(-c2ccccc2)nc1Sc1ccc(F)cc1,"inconclusive: 28.2 µM [activator, single point]",
Cc1ccc(O)c(NC(=O)CCS(=O)(=O)c2nc(-c3ccc4c(c3)OCO4)cc(C(F)(F)F)n2)c1,"inconclusive: 20 µM [activator, single point]",
Cc1nc(NC(=S)NC(=O)c2ccccc2)sc1C(=O)N(C)C,"inconclusive: 11.2 µM [activator, partial curve, poor fit]",
Cc1ccc(-c2nn(-c3ccccc3)cc2/C=N/NS(=O)(=O)c2ccccc2)cc1,"inconclusive: 7.08 µM [activator, partial curve, poor fit]",
CCCOc1ccc(S(=O)(=O)NCCCN2CCOCC2)c2ccccc12,,inactive: -5.39%
Oc1ccc(NCc2ccc(OCc3ccccc3Cl)cc2)cc1,"inconclusive: 7.08 µM [activator, full curve, poor fit]",
CCOc1cc(CNc2ccc(O)cc2)cc(Br)c1OCc1ccccc1F,"inconclusive: 14.1 µM [activator, partial curve, poor fit]",
C[C@@H]1CN([C@@H](C)CO)S(=O)(=O)c2ccc(Br)cc2O[C@H]1CN(C)C(=O)c1cccc(F)c1,"inconclusive: 28.2 µM [activator, single point]",
Cc1ccc(NC(=O)Nc2sc(=S)n(C)c2C)cc1,"inconclusive: 50.1 µM [activator, single point]",
COc1ccc(OC)c(S(=O)(=O)N2CCN(c3c(C)cccc3C)CC2)c1,"inconclusive: 11.2 µM [activator, single point]",
Fc1ccc(-c2nnc(Cc3ccc(Cl)cc3)o2)cc1,"inconclusive: 3.98 µM [activator, full curve, poor fit]",
CC(C)NC(=O)c1ccc(CSCc2ccccc2Cl)o1,"inconclusive: 63.1 µM [activator, single point]",
CC1(OC(=O)CCc2ccccc2)C(=O)C=C2C=C(c3ccc(C#N)cc3)N(C3CCCCC3)C=C2C1=O (stereo unspecified),"inconclusive: 14.1 µM [activator, full curve, poor fit]",
CCCc1cc(NC(=O)CCl)n(-c2ccccc2)n1,"inconclusive: 39.8 µM [activator, partial curve, poor fit]",
CSc1nsc(SC)c1CO,"inconclusive: 28.2 µM [activator, single point]",
COC(=O)N1CCC2(CCCN(c3cccc(-c4ccccc4)c3)C2)CC1,"inconclusive: 14.1 µM [activator, partial curve, poor fit]",
C[C@H](O)[C@@H]1C(=O)N2CCc3c([nH]c4ccccc34)[C@@H]2C[C@@H]1N(C)C(=O)Nc1cc(Cl)cc(Cl)c1,,inactive: -3.85%
O=c1oc(-c2ccc(O)c(O)c2)cc2cc(O)cc(O)c12,"inconclusive: 50.1 µM [activator, partial curve, poor fit]",
CCOC(=O)C1=C(Cc2ccc(Cl)cc2)C(=O)c2ccccc2C1=O,"inconclusive: 11.2 µM [activator, single point]",
CC(OC(=O)c1ccc(NC(=O)CC#N)cc1)C(=O)NC(=O)NC1CCCCC1 (stereo unspecified),,inactive: -2.92%
CCOc1ccc(N2CC(c3nc4ccccc4n3CCC3CCCCC3)CC2=O)cc1 (stereo unspecified),,inactive: -3.25%

SMILES,Potency,activation
CCOc1cc(C(=O)NCCc2ccc(S(N)(=O)=O)cc2)cc(OCC)c1OCC,,inactive: 1.78%
CCOC1=C/C(=C/c2c(N)n3nc(CC(=O)N4CCCCC4)sc3nc2=O)C=CC1=O,,inactive: 7.83%
Cc1ccc2c(c1)CN(C(=O)CC(c1ccccc1)c1ccco1)CC(C)O2 (stereo unspecified),,inactive: -4.3%
Nc1nonc1-c1nc2ccccc2n1CC(=O)N/N=C\c1ccc(-c2ccc(Cl)cc2)o1,"inconclusive: 10 µM [activator, partial curve, poor fit]",
Cc1ccnc(NC(=O)CCCc2c[nH]c3ccccc23)c1,"inconclusive: 28.2 µM [activator, single point]",
CCCCCCn1c(N2CCN(c3ccccc3)CC2)nc2c1c(=O)[nH]c(=O)n2C,"inconclusive: 44.7 µM [activator, partial curve, poor fit]",
Nc1nc(Nc2ccc(Cl)cc2)nc(NCc2ccco2)c1[N+](=O)[O-],"inconclusive: 11.2 µM [activator, full curve, poor fit]",
Cc1cc(C)cc(NC(=S)N2CCC(NC(=O)C3CC3)CC2)c1,,inactive: 4.78%
O=C1CCCN1CCCNc1nc(NCc2ccccc2)nc2ccsc12,"inconclusive: 25.1 µM [activator, partial curve, poor fit]",
NC(=O)c1ccsc1NC(=O)CSc1ccccc1F,,inactive: 5.48%
COc1ccc(/C=C(\C#N)C(=O)NCc2ccccc2)cc1,"inconclusive: 50.1 µM [activator, single point]",
CCOC(=O)c1oc2cc(OCC(=O)OC)ccc2c(=O)c1-c1ccc(OC)c(OC)c1,"inconclusive: 28.2 µM [activator, single point]",
Cc1ccc2c(c1)=N/C(=N\c1[nH]c(O)c3ccccc13)N=2,"inconclusive: 50.1 µM [activator, partial curve, poor fit]",
OCCCN=c1cc(-c2ccccc2)oc2ccc(Cl)cc12,"inconclusive: 50.1 µM [activator, single point]",
C/C(=N\Nc1nc2ccccc2[nH]1)c1ccc(Cl)s1,"inconclusive: 50.1 µM [activator, single point]",
Cc1ccc(N(CC(=O)Nc2ccc3c(c2)OCCO3)S(C)(=O)=O)cc1,"inconclusive: 11.2 µM [activator, single point]",
COc1cc2nc(N3CCN(c4cc(C)ccc4C)CC3)nc(N)c2cc1OC,,inactive: -17.1%
O=NCc1ccc([N+](=O)[O-])o1,"inconclusive: 28.2 µM [activator, single point]",
Brc1cccc(OCCCN2CCCCCC2)c1,,inactive: 0.0785%
O=[N+]([O-])c1ccc(O)c(/C=N/Nc2ccccn2)c1,"inconclusive: 44.7 µM [activator, partial curve, poor fit]",
